Test results published in the supplement of paper PMC4166925.
± gives the standard deviation of the averaged measurements. In all, about 33,000 sequences were measured (“E-score (dimensionless, -0.5 to 0.5)”: median about -0.046, highest 2% from about 0.36 on). Some of the results follow.

System: T1, SpTbr T-box DNA-binding domain (GST fusion)
T1 sequence: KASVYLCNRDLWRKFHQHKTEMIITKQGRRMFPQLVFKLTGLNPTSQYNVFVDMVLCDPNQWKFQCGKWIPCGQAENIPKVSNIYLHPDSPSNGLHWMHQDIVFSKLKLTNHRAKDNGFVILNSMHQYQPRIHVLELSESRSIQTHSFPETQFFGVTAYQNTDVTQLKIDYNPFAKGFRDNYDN
Experiment: PBM E-score of 8-mer (E-score (dimensionless, -0.5 to 0.5)); Tbr is Tbrain of the sea star Patiria miniata (Pm) or the sea urchin Strongylocentrotus purpuratus (Sp); higher = stronger binding preference; most listed sequences are background and not binding sites
Settings: the construct has about 5 more residues each side
In short: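 Using the Universal PBM Analysis Suite, every ungapped 8-mer received an enrichment E-score averaged over duplicate arrays. Probe intensities came from double-stranded Universal Agilent oligonucleotide arrays incubated with 200 nM GST-fused Tbr T-box DNA-binding domain in PBS (pH 7.5). That protein was expressed in BL21 E. coli at 20 °C and purified by glutathione affinity chromatography.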

Sequence | PBM E-score of 8-mer
ACCGTCGA | 0.0295 ± 0.02
GGCGTAAA | 0.215 ± 0.093
ACCTGTCG | 0.37 ± 0.011
CGTCGAAG | 0.0761 ± 0.022
CGTCCATC | -0.2454 ± 0.0015
CGAAGATC | 0.0347 ± 0.0039
AGTGGTAA | 0.123 ± 0.0042
TGACTAAA | -0.0967 ± 0.036
CTAAATAC | -0.0239 ± 0.037
CTTGATGA | 0.0805 ± 0.032
TGGGCCCA | -0.277 ± 0.054
TAACCAAA | -0.211 ± 0.055
AAAAGGCT | -0.113 ± 0.038
ACTAGGTA | -0.0768 ± 0.014
CCGACATA | -0.00631 ± 0.021
ACATTGCT | 0.124 ± 0.025
CGGTCCTA | -0.206 ± 0.017
TGGGGAAA | 0.0585 ± 0.011
AATTCTAA | -0.217 ± 0.049
CTTGTTGA | 0.174 ± 0.02
AAACATCG | -0.0785 ± 0.0083
CATAAAAA | -0.195 ± 0.089

Sequence | PBM E-score of 8-mer
CCTAAATC | 0.0624 ± 0.1
GGATTCAA | -0.285 ± 0.039
CAGCATAA | -0.222 ± 0.0034
TAGCCACA | 0.153 ± 0.059
TCTTCCAA | -0.156 ± 0.023
GACGAGGC | 0.0588 ± 0.057
AACACCTT | 0.479 ± 0.0049
AGTAGACT | -0.0251 ± 0.059
GAATACTA | -0.167 ± 0.03
ATAGGTTA | -0.224 ± 0.055
GACGTTCC | -0.197 ± 0.016
CGTGCGGA | 0.147 ± 0.028
AATCCGTG | 0.113 ± 0.043
CAGGAGAA | -0.162 ± 0.05
GGTACACA | -0.053 ± 0.021
CACAGATG | 0.0328 ± 0.018
CTAGGTTC | -0.116 ± 0.048
ACACCGCG | 0.286 ± 0.013
CCTGTGAG | 0.24582 ± 4.2e-05
CCTTATCA | 0.0899 ± 0.063
GAACCGGC | -0.149 ± 0.0061
ACATTCTC | 0.171 ± 0.072

Sequence | PBM E-score of 8-mer
ACCCAGAC | 0.0883 ± 0.036
GCCCATCC | -0.143 ± 0.012
AATCGGCT | -0.0394 ± 0.044
CAGGGCAG | 0.031 ± 0.018
AGTATTCG | -0.0814 ± 0.025
CAAAGTTC | -0.112 ± 0.022
CTTATTAA | -0.183 ± 0.12
CGGCGGCC | -0.26 ± 0.033
TACTAACA | 0.209 ± 0.041
CATTGTGC | -0.0653 ± 0.0057
CAGGAATC | -0.232 ± 0.031
TATAATGA | -0.0237 ± 0.028
AGAACCAG | -0.162 ± 0.11
ATTAAGTG | 0.168 ± 0.014
GGTTCAAA | -0.343 ± 0.0085
CGCACCAG | 0.242 ± 0.0071
CGTATCCC | -0.0676 ± 0.046
GCGCGGGA | 0.114 ± 0.029
GCGCCACC | 0.276 ± 0.072
ATTTCATC | -0.187 ± 0.026
GCGTTACA | 0.189 ± 0.017
ATCTGTGG | -0.149 ± 0.04

Sequence | PBM E-score of 8-mer
GCAGCAGA | -0.132 ± 0.033
GTTTTCTA | -0.191 ± 0.007
ATAATCCG | -0.0937 ± 0.034
AGTACTTC | -0.321 ± 0.02
GCCCTGTA | -0.202 ± 0.063
GAAAAAGA | -0.137 ± 0.024
GCAAAAAA | -0.111 ± 0.022
ATTCCGGA | -0.253 ± 0.0058
CAACGCTC | 0.00391 ± 0.055
CAGAGGAG | -0.063 ± 0.011
CCTTGGCC | -0.182 ± 0.029
GCATATTA | -0.0537 ± 0.048
GCGTTTCC | -0.056 ± 0.057
AGTCGTAG | -0.0391 ± 0.08
CTACCTTA | -0.147 ± 0.033
TACAGGAA | 0.05 ± 0.067
GAGTTCTA | -0.148 ± 0.046
ATGATTCG | -0.0332 ± 0.085
AGCGTGAT | 0.28 ± 0.022
GTACGTCA | 0.0569 ± 0.035
